{
  "source": "the supplement of paper PMC10037445",
  "key": {"[1]": {"tested_on": "RAW-Dual", "assay": "IRF Lucia reporter activity, fold change vs agonist alone; higher = enhanced IRF activity", "details": "agonist: MPLA (TLR4) […]", "summary_of_the_method": "(§1)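 Supernatant from RAW-Dual macrophages was read after 20 hours for IRF by QuantiLuc luminescence and for NF-κB by QuantiBlue absorbance at 620 nm. The cells (50,000 cells/well in DMEM, 384-well plates, 37 °C, 5% CO2) had received 50 nL of library stock by pin tool and, 1 h later, a PRR agonist. Reporter activity is expressed relative to agonist-alone wells as fold change, and wells were flagged cytotoxic if IncuCyte confluency was under 70% of agonist controls in both mask sets.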"}, "[2]": {"tested_on": "RAW-Dual", "assay": "IRF Lucia reporter activity, fold change vs agonist alone; cytotoxicity flag (confluency mask): not cytotoxic; higher = enhanced IRF activity", "summary_of_the_method": "as §1"}, "[3]": {"tested_on": "RAW-Dual", "assay": "IRF Lucia reporter activity, fold change vs agonist alone; cytotoxicity flag (confluency mask): cytotoxic (confluency <70% of control); higher = enhanced IRF activity", "summary_of_the_method": "as §1"}, "[4]": {"details": "library stock concentration (final ~1000-fold dilution): 10 mM, cytotoxicity flag (confluency mask): not cytotoxic"}, "[5]": {"details": "agonist: 3'3'-cGAMP (STING) 10 ug/mL"}, "[6]": {"details": "library stock concentration (final ~1000-fold dilution): 10 mM, cytotoxicity flag (confluency mask): cytotoxic (confluency <70% of control)"}},
  "note": "Where “and” joins values, the source holds several entries; their conditions need not be identical. Equal entries are not always repeated. In all, about 2,900 compounds were measured (“IRF Lucia reporter activity, fold change vs agonist alone”: median about 0.9, highest 2% from about 2.8 on). The list shows a part of the results.",
  "data": [
    {"smiles": "Cc1ccccc1C(OCCN(C)C)c1ccccc1.O=C(O)CC(O)(CC(=O)O)C(=O)O", "note": "(stereo unspecified)", "values": [
      {"measurement": "IRF Lucia reporter activity", "setting": "[1]; [4]", "value": 1.01}
    ]},
    {"smiles": "Cc1ccccc1C(OCCN(C)C)c1ccccc1.O=C(O)CC(O)(CC(=O)O)C(=O)O", "note": "(stereo unspecified) (library stock concentration (final ~1000-fold dilution): 10 mM)", "values": [
      {"measurement": "IRF Lucia reporter activity", "setting": "[2]; [5]", "value": 0.699},
      {"measurement": "IRF Lucia reporter activity", "setting": "[2]; agonist: LPS (TLR4) 0.1 ug/mL", "value": 0.813}
    ]},
    {"smiles": "O=C(O)C=Cc1ccc(Cn2ccnc2)cc1", "note": "(library stock concentration (final ~1000-fold dilution): 10 mM water)", "values": [
      {"measurement": "IRF Lucia reporter activity", "setting": "[2]; [5]", "value": 1.4},
      {"measurement": "IRF Lucia reporter activity", "setting": "[2]; agonist: LPS (TLR4) 0.1 ug/mL", "value": 1.03}
    ]},
    {"smiles": "O=C(O)C=Cc1ccc(Cn2ccnc2)cc1", "values": [
      {"measurement": "IRF Lucia reporter activity", "setting": "[1]; library stock concentration (final ~1000-fold dilution): 10 mM water, cytotoxicity flag (confluency mask): not cytotoxic", "value": 1.33}
    ]},
    {"smiles": "CC(=O)Nc1nc(C)c(-c2ccc(Cl)c(S(=O)(=O)NCCO)c2)s1", "note": "(library stock concentration (final ~1000-fold dilution): 10 mM)", "values": [
      {"measurement": "IRF Lucia reporter activity", "setting": "[2]; [5]", "value": 0.0873},
      {"measurement": "IRF Lucia reporter activity", "setting": "[2]; agonist: LPS (TLR4) 0.1 ug/mL", "value": 0.813}
    ]},
    {"smiles": "CC(=O)Nc1nc(C)c(-c2ccc(Cl)c(S(=O)(=O)NCCO)c2)s1", "values": [
      {"measurement": "IRF Lucia reporter activity", "setting": "[1]; [4]", "value": 0.756}
    ]},
    {"smiles": "Cl.OC(c1cc(C(F)(F)F)nc2c(C(F)(F)F)cccc12)C1CCCCN1", "note": "(stereo unspecified)", "values": [
      {"measurement": "IRF Lucia reporter activity", "setting": "[1]; [6]", "value": 1.67}
    ]},
    {"smiles": "Cl.OC(c1cc(C(F)(F)F)nc2c(C(F)(F)F)cccc12)C1CCCCN1", "note": "(stereo unspecified) (library stock concentration (final ~1000-fold dilution): 10 mM)", "values": [
      {"measurement": "IRF Lucia reporter activity", "setting": "[3]; [5]", "value": 0.49},
      {"measurement": "IRF Lucia reporter activity", "setting": "[3]; agonist: LPS (TLR4) 0.1 ug/mL", "value": 1.58}
    ]},
    {"smiles": "COc1ccc2cc(C(C)C(=O)O)ccc2c1", "note": "(stereo unspecified) (library stock concentration (final ~1000-fold dilution): 10 mM)", "values": [
      {"measurement": "IRF Lucia reporter activity", "setting": "[2]; [5]", "value": "0.987 and 1.02"},
      {"measurement": "IRF Lucia reporter activity", "setting": "[2]; agonist: LPS (TLR4) 0.1 ug/mL", "value": "1.13 and 0.985"}
    ]},
    {"smiles": "Cc1nccn1CC1CCc2c(c3ccccc3n2C)C1=O.Cl.O.O", "note": "(stereo unspecified) (library stock concentration (final ~1000-fold dilution): 10 mM)", "values": [
      {"measurement": "IRF Lucia reporter activity", "setting": "[3]; [5]", "value": 0.976},
      {"measurement": "IRF Lucia reporter activity", "setting": "[3]; agonist: LPS (TLR4) 0.1 ug/mL", "value": 1.11}
    ]},
    {"smiles": "Cc1nccn1CC1CCc2c(c3ccccc3n2C)C1=O.Cl.O.O", "note": "(stereo unspecified)", "values": [
      {"measurement": "IRF Lucia reporter activity", "setting": "[1]; [6]", "value": 0.98}
    ]},
    {"smiles": "COc1cc(C=CC(=O)OCC[N+](C)(C)C)cc(OC)c1O", "note": "(library stock concentration (final ~1000-fold dilution): 10 mM)", "values": [
      {"measurement": "IRF Lucia reporter activity", "setting": "[2]; [5]", "value": 0.894},
      {"measurement": "IRF Lucia reporter activity", "setting": "[2]; agonist: LPS (TLR4) 0.1 ug/mL", "value": 1.04}
    ]},
    {"smiles": "Cc1ccc(CN(CC(O)COc2cccc3[nH]ccc23)C(C)(C)C)cc1", "note": "(stereo unspecified) (library stock concentration (final ~1000-fold dilution): 10 mM)", "values": [
      {"measurement": "IRF Lucia reporter activity", "setting": "[3]; [5]", "value": 0.837},
      {"measurement": "IRF Lucia reporter activity", "setting": "[3]; agonist: LPS (TLR4) 0.1 ug/mL", "value": 1.9}
    ]},
    {"smiles": "Cl.Cl.NC1(c2ccc(-c3nc4ccn5c(=O)[nH]nc5c4cc3-c3ccccc3)cc2)CCC1", "values": [
      {"measurement": "IRF Lucia reporter activity", "setting": "[1]; [4]", "value": 2.08}
    ]},
    {"smiles": "Cl.Cl.NC1(c2ccc(-c3nc4ccn5c(=O)[nH]nc5c4cc3-c3ccccc3)cc2)CCC1", "note": "(library stock concentration (final ~1000-fold dilution): 10 mM)", "values": [
      {"measurement": "IRF Lucia reporter activity", "setting": "[2]; [5]", "value": 1.29},
      {"measurement": "IRF Lucia reporter activity", "setting": "[2]; agonist: LPS (TLR4) 0.1 ug/mL", "value": 0.181}
    ]},
    {"smiles": "O=c1cc(-c2ccc(O)cc2)oc2cccc(O)c12", "note": "(library stock concentration (final ~1000-fold dilution): 10 mM)", "values": [
      {"measurement": "IRF Lucia reporter activity", "setting": "[2]; [5]", "value": 0.167},
      {"measurement": "IRF Lucia reporter activity", "setting": "[2]; agonist: LPS (TLR4) 0.1 ug/mL", "value": 0.482}
    ]}
  ]
}
